Assay results from ChEMBL document CHEMBL1961873, “Compounds: GSK PKIS; Assays: Nanosyn kinase panel” (2012).
For some of these results: The strong results were mostly taken out for another list; the other results follow. The entries are a selection whose mix differs from that of the whole data set.

Legend:
[1] = target: Mitogen-activated protein kinase kinase kinase kinase 4 (Homo sapiens) (UniProt O95819); details: at 1 µM;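 note: reported figure is an averaged inhibition value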
[2] = target: Dual specificity mitogen-activated protein kinase kinase 1 (Homo sapiens) (UniProt Q02750); details: at 0.1 µM
Chain of UniProt Q02750 (Q02750 whole entry): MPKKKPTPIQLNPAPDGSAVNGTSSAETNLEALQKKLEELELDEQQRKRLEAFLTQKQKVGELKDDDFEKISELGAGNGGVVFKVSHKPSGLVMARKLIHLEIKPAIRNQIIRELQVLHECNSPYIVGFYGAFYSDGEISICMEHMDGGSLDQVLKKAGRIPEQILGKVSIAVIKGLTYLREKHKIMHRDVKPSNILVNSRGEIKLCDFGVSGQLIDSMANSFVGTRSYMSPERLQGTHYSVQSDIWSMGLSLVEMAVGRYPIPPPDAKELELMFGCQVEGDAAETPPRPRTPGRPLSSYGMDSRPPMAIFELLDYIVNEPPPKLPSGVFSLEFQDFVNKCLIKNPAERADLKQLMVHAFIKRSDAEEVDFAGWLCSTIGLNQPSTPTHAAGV

[3] = target: Dual specificity mitogen-activated protein kinase kinase 1 (Homo sapiens) (UniProt Q02750); details: at 1 µM
[4] = target: Misshapen-like kinase 1 (Homo sapiens) (UniProt Q8N4C8); details: at 0.1 µM
Chain of UniProt Q8N4C8 (Q8N4C8 whole entry, looked up): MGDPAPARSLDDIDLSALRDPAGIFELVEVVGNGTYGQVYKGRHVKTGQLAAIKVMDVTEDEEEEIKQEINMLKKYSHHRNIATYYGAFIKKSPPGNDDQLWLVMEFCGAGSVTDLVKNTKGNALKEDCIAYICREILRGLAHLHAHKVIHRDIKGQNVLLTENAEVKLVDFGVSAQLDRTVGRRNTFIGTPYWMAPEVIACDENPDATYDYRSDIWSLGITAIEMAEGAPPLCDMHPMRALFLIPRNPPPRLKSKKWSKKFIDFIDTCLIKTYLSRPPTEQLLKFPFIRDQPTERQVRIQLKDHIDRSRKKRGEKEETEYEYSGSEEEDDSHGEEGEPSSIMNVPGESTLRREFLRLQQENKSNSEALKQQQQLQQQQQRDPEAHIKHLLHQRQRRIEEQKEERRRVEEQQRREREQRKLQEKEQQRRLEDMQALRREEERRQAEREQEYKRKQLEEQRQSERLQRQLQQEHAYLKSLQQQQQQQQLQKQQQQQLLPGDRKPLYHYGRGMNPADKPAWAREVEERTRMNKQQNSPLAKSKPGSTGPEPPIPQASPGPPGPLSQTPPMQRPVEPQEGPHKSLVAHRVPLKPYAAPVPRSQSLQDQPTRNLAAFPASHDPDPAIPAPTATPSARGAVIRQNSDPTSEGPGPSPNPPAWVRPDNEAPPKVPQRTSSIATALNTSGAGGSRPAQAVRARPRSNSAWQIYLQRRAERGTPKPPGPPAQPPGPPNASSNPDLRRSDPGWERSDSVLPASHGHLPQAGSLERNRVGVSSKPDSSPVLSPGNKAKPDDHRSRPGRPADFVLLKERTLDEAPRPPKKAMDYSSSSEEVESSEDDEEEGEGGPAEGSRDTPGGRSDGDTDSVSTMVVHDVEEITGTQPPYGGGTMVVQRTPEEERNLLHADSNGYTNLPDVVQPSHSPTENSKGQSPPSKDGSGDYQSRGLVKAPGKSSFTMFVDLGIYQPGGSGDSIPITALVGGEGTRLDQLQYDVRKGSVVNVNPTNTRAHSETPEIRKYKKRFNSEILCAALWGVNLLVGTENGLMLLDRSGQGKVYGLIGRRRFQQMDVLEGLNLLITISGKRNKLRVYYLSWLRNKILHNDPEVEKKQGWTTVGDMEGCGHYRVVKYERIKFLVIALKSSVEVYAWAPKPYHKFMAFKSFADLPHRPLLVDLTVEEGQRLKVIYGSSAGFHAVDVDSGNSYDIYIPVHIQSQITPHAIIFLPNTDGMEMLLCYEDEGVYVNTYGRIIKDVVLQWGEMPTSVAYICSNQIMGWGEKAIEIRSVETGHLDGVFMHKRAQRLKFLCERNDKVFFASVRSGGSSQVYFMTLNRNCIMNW

[5] = target: Misshapen-like kinase 1 (Homo sapiens) (UniProt Q8N4C8); details: at 1 µM
[6] = target: T1, Serine/threonine-protein kinase 4 (Homo sapiens) (UniProt Q13043); details: at 0.1 µM
T1 sequence (whole entry): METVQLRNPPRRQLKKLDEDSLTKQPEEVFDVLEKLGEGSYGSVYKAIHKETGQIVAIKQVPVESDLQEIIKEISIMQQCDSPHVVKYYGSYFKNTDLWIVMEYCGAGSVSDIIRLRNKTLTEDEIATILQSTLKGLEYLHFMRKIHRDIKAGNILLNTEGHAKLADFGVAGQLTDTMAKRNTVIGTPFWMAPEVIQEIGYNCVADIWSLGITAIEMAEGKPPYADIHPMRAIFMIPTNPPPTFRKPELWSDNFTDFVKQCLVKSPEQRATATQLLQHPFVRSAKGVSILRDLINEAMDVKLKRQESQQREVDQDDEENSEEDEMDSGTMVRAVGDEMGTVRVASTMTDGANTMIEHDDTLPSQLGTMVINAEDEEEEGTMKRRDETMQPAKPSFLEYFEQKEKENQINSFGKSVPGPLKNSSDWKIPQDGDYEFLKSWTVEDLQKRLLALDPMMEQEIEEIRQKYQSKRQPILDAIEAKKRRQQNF

[7] = target: T1, Serine/threonine-protein kinase 4 (Homo sapiens); details: at 1 µM
[8] = target: T2, Serine/threonine-protein kinase 3 (Homo sapiens) (UniProt Q13188); details: at 0.1 µM
T2 sequence (whole entry): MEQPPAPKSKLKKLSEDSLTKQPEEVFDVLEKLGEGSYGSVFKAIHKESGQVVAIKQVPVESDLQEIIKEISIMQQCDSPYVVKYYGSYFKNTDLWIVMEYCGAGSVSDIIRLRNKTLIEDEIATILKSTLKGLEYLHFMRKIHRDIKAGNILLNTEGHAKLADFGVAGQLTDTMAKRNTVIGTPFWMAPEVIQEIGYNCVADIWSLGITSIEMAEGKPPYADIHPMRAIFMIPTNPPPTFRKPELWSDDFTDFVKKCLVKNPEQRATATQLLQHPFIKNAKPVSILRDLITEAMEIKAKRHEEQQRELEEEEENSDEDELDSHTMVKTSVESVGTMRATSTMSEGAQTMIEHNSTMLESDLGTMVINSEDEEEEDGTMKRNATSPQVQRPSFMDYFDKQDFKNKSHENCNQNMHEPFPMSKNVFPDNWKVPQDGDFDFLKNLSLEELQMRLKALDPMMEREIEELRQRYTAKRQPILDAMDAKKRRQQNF

[9] = target: T2, Serine/threonine-protein kinase 3 (Homo sapiens); details: at 1 µM
[10] = target: Serine/threonine-protein kinase 26 (Homo sapiens) (UniProt Q9P289); details: at 0.1 µM
Chain of UniProt Q9P289 (Q9P289 whole entry, looked up): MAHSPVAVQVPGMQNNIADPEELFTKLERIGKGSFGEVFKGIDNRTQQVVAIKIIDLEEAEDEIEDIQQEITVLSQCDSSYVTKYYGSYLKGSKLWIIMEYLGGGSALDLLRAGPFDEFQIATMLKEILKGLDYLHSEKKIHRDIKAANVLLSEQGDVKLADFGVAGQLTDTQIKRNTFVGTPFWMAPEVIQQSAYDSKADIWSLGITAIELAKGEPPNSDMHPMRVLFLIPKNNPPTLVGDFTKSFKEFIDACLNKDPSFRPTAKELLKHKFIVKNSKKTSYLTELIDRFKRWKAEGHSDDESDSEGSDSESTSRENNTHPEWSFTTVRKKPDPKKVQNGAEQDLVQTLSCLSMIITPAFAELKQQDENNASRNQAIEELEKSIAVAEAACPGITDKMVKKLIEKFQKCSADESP

[11] = target: Serine/threonine-protein kinase 26 (Homo sapiens) (UniProt Q9P289); details: at 1 µM
[12] = target: Serine/threonine-protein kinase PAK 1 (Homo sapiens) (UniProt Q13153); details: at 0.1 µM
[13] = target: Serine/threonine-protein kinase PAK 1 (Homo sapiens) (UniProt Q13153); details: at 1 µM
[14] = target: Serine/threonine-protein kinase PAK 2 (Homo sapiens) (UniProt Q13177); details: at 0.1 µM
[15] = target: Serine/threonine-protein kinase PAK 2 (Homo sapiens) (UniProt Q13177); details: at 1 µM
[16] = target: Serine/threonine-protein kinase PAK 3 (Homo sapiens) (UniProt O75914); details: at 0.1 µM
[17] = target: Serine/threonine-protein kinase PAK 3 (Homo sapiens) (UniProt O75914); details: at 1 µM
[18] = target: Serine/threonine-protein kinase PAK 5 (Homo sapiens) (UniProt Q9P286); details: at 0.1 µM
Chain of UniProt Q9P286 (Q9P286 whole entry, looked up): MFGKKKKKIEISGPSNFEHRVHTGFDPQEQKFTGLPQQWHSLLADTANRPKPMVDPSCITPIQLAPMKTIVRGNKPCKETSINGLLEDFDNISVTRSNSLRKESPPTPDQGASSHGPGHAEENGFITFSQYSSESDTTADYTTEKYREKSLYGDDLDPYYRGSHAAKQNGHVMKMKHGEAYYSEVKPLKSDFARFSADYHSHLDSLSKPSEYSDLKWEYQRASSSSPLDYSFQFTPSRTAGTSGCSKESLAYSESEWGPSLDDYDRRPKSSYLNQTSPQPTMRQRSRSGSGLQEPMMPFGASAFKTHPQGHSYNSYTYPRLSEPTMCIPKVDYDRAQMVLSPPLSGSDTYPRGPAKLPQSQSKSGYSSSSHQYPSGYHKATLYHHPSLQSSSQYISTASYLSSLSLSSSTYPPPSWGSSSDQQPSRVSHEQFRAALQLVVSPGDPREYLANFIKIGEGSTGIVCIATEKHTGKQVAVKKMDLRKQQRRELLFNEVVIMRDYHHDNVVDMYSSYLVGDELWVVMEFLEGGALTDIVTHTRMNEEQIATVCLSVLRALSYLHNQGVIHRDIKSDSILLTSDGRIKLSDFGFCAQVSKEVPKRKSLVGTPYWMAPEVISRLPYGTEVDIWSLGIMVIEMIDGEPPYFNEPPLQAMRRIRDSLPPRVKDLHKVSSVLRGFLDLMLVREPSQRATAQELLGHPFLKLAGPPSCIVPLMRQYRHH

[19] = target: Serine/threonine-protein kinase PAK 5 (Homo sapiens) (UniProt Q9P286); details: at 1 µM
[20] = target: Serine/threonine-protein kinase PAK 6 (Homo sapiens) (UniProt Q9NQU5); details: at 0.1 µM;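 note: mean PAK6 inhibition reported from the GSK PKIS screen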
Chain of UniProt Q9NQU5 (Q9NQU5 whole entry, looked up): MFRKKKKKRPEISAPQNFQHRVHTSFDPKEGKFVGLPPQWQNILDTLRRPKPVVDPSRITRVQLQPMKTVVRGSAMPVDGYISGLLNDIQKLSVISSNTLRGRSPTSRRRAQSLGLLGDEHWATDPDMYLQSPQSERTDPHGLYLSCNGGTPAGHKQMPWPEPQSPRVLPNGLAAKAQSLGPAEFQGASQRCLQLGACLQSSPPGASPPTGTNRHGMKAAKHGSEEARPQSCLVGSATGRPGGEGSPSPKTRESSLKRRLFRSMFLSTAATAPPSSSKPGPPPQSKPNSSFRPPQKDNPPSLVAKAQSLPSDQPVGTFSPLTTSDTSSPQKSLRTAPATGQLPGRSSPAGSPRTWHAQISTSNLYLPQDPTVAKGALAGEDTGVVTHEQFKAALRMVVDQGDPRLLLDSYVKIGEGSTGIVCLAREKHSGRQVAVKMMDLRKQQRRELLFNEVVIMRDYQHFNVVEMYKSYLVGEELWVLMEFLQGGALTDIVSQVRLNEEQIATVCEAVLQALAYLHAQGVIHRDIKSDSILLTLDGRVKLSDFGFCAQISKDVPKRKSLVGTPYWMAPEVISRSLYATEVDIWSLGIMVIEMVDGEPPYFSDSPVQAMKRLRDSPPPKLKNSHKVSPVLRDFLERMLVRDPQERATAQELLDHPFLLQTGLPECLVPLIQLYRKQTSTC

Chain of UniProt O95819 (O95819 whole entry, looked up): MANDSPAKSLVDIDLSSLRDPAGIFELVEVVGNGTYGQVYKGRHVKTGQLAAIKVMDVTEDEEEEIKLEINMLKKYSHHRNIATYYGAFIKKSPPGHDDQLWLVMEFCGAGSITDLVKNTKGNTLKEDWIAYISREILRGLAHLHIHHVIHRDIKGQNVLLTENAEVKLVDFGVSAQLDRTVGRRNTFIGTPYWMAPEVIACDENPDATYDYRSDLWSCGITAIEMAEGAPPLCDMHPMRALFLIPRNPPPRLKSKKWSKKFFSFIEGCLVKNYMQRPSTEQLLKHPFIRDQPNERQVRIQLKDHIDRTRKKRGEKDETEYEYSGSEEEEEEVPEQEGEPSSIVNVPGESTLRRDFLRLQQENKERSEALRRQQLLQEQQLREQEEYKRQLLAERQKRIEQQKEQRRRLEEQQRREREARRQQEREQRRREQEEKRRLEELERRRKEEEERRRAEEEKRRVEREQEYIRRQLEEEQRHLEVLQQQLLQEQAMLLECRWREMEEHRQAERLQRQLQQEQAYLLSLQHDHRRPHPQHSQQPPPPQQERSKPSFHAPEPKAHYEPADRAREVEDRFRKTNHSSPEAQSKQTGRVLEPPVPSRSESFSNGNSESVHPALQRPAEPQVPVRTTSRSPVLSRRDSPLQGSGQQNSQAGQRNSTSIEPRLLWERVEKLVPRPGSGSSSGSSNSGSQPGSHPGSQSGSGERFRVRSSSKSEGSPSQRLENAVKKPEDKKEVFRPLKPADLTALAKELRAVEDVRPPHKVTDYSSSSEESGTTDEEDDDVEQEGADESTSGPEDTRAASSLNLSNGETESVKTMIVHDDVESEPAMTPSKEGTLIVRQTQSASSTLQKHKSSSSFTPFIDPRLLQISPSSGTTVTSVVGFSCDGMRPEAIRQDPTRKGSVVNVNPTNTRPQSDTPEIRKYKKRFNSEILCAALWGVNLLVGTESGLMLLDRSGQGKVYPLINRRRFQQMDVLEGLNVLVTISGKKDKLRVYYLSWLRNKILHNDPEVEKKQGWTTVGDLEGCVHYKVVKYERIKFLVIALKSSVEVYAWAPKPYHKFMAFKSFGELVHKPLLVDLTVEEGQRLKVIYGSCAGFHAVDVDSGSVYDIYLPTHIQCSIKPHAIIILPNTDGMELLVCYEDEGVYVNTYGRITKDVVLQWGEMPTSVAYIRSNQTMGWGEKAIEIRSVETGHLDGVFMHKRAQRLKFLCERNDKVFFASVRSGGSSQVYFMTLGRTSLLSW

Structure (SMILES)	inhibition [1] [%]	inhibition [2] [%]	inhibition [3] [%]	inhibition [4] [%]	inhibition [5] [%]	inhibition [6] [%]	inhibition [7] [%]	inhibition [8] [%]	inhibition [9] [%]	inhibition [10] [%]	inhibition [11] [%]	inhibition [12] [%]	inhibition [13] [%]	inhibition [14] [%]	inhibition [15] [%]	inhibition [16] [%]	inhibition [17] [%]	inhibition [18] [%]	inhibition [19] [%]	inhibition [20] [%]
O=C1NC(=O)C(c2ccccc2)=C1Nc1ccccc1	19.6	6.95	5.61	8.4	17.7	9.67	31.7	7.25	22.4	2.05	6.5	6.89	6.87	3.42	3.13	5.6	6.57	4.73	4.32	-4.44
O=C1NC(=O)C(c2ccccc2Cl)=C1Nc1cc(Cl)c(O)c(Cl)c1	5.34	4.15	4.62	3.87	4.7	7.23	11.9	8.39	11.1	-1.02	3.41	5.47	2.78	1.74	2.21	3.89	2.79	7.33	2.96	2.18
CS(=O)(=O)c1ccc(Oc2nccc(-c3c(-c4ccc(F)cc4)ncn3C3CCNCC3)n2)cc1	5.21	4.29	4.33	6.5	6.72	3.25	3.52	4.45	5.07	-1.12	-2.95	7.47	3.75	1.73	1.12	4.48	3.6	2.6	0.7	-3.38
Fc1ccc(-c2ncn(C3CCNCC3)c2-c2ccnc(Oc3cccc(F)c3)n2)cc1	9.3	3.69	5.25	7.28	7.56	4.08	5.81	5.64	7.21	0.02	1.08	8.78	11.6	2.09	1.6	5.36	9.66	2.77	1.46	-6.58
Fc1ccc(-c2ncn(C3CCNCC3)c2-c2ccnc(Oc3cccc(C(F)(F)F)c3)n2)cc1	8.02	5.6	5.27	6.52	8.63	3.99	5.74	8.08	7.64	-0.46	4.79	9.43	7.76	2.26	2.63	6.83	5.85	–	1.97	-8.11
Fc1ccc(-c2ncn(C3CCNCC3)c2-c2ccnc(Oc3ccc(Cl)cc3)n2)cc1	1.49	1.79	3.05	0.72	1.27	-0.24	0.91	-1.52	0.79	0.49	0	5.82	3.96	-0.15	-0.01	0.29	1.84	0.4	0.8	–
O=C1NC(=O)C(c2cccc([N+](=O)[O-])c2)=C1Nc1cc(Cl)c(O)c(Cl)c1	4.07	2.59	2.69	3.34	2.65	13	56.5	12.4	50.7	3.03	10.5	1.01	-0.91	0.79	-1	2.75	0.99	-0.76	-2.87	2.58
Cc1cccc(Oc2nccc(-c3c(-c4ccc(F)cc4)ncn3C3CCNCC3)n2)c1C	7.88	3.52	4.43	6.85	9.99	4.49	7.42	6.1	6.56	-2.61	-1.91	7.98	5.85	1.4	1.47	4.86	5.21	1.56	2.54	-7.57
O=C(O)c1ccc(Oc2nccc(-c3c(-c4ccc(F)cc4)ncn3C3CCNCC3)n2)cc1	1.8	3.94	4.58	3.04	4.13	3.08	4.69	5.69	4.71	-2.14	0.24	9.33	14.2	3.09	3.5	5.71	9.17	5.28	2.45	-8.62
Fc1ccc(Oc2nccc(-c3c(-c4ccc(F)cc4)ncn3C3CCNCC3)n2)cc1	3.11	1.76	2.77	4.46	5.21	2.62	3.3	6.03	6.39	-1.55	1.32	8.41	8.5	1.93	3.24	5.55	8.51	5.49	2.65	-8.91
COc1ccccc1C1=C(Nc2ccccc2)C(=O)NC1=O	10.6	4.12	3.81	3.76	7.59	10.3	44	9.92	34.2	1.37	15.3	5.15	8.18	1.63	1.82	3.13	3.76	1.79	2.53	-8.52
NC(=O)CCc1ccccc1Oc1nccc(-c2c(-c3ccc(F)cc3)ncn2C2CCNCC2)n1	-0.11	-1.47	0.22	-1.02	-2.5	-2.51	-1.41	-3.56	-1.93	-0.05	-2.71	-2.57	-3.43	-0.9	-0.98	-2.54	-0.57	-1.05	1.78	–
COc1ccccc1Oc1nccc(-c2c(-c3ccc(F)cc3)ncn2C2CCNCC2)n1	13.5	4.01	4.05	10.4	15.5	9.34	10.6	12.3	12.1	2.84	8.06	5.34	6.28	1.72	1.81	5.72	6.6	-0.33	-0.66	-6.9
CC(C)(C)c1ccc(Oc2nccc(-c3c(-c4ccc(F)cc4)ncn3C3CCNCC3)n2)cc1	11.7	4.73	12.6	5.59	13	3.52	7.03	3.93	6.25	-1.34	-1.54	6.43	6.13	1.02	2.33	2.9	3.34	4.67	2.75	-7.4
